Source: the supplement of paper PMC12632987
Whole data set: some 4,500 sequences, median “median log2 fold change of GCK-ALFA target abundance (FLAG IP / Myc IP barcode read proportion)” near 0.078, cut for the lowest 2% near -0.6. This is one part of the list.

B1: GBRAP_39_5661 (protein)
chain: EEEEENELLFSYYLALAVGEQIKKGISDEEMIEEGKKLLTKIAEEHPEIKEDIEKLLKKVDEGNEEVGLAAYGIALEYEKGTPIEEIKEHIKSLLKYVDK
B2: GBRAP_42_5723 (protein)
chain: MYLVNLEVVVATREELERAIAIWRERNARYRKEKGIIIRLTIAAPEEAAELAAEAEAESAELAKEADKELDWVVVAASADEVGDAIDIAVDLALEERKEE
B3: GBRAP_95_7082 (protein)
chain: EEDLETLEDLAQTAIDLYEAGFEEQAARAAKAAAEELEELGYKVADKELLTKLLTYAADLAPKYFDEEEIERWLKIAEATGAPQSIIDALRAALAAKKAA
B4: GBRAP_14_3870 (protein)
chain: KEEVLKIIEEAIEEMEEEMIELLPEEAERIKEVAEEIKKKAKEVIEEEDDVEKIMEKIKEYSLKLVEEAFADLPPEDRAALLATADNEFAEADLEIEEKL
B5: GBRAP_39_5641 (protein)
chain: SEEEEAEETYEYLEALGAKLLVDEKISLEEALEKTLAYALEKFADNPELQALINELKELAEKGDEMDKLALVGALSLAELGKSDEEIKEHLELLIKYLKS
B6: GBRAP_39_5676 (protein)
chain: EEEEENEDVVSYLEALAAGYLYTTGLSEEEAYERAKKILEAYAKEHPELAPLIKELIEIADEKGEEAKLVLIGIAVKIEQGTPKEEIKKDIELAIAYFKK
B7: GBRAP_84_7000 (protein)
chain: MREEEIEKLVDYLAENSSLELLKKLYVYLLLKNDNKGATRLLSYLLEKDPEAAAEALDKATEAALEEKEEEVKKELLELAKKEGEEIYKKVKKLIELLEE
B8: GBRAP_160_4445 (protein)
chain: SETLERLKKLVEETREEIKKLIEGETHENRVVIVDVGFGELLLEFVEDENVSDELEDEVAKIVDETVEYLKNNPDLTEEEIKKLIDETAEKIKEAIEKHL

These binders were tested against GABARAP, O95166 (assay: median log2 fold change of GCK-ALFA target abundance (FLAG IP / Myc IP barcode read proportion) (log2 ratio); each designed protein is fused to an ALFA-tag nanobody in HEK293 cells to bring the named protein to FLAG-tagged glucokinase (GCK); Myc marks an untargeted standard; higher = target protein stabilised (more abundant)). Settings: target protein: 3xFLAG-MCP-GCK-ALFA reporter; HEK293 landing pad (RPLP).
Chain of GABARAP, O95166 (O95166 whole entry, the tested form may be a part): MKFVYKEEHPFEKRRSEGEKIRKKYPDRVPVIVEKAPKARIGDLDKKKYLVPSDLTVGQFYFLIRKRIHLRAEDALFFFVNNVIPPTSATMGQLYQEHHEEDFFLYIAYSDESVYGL
In short: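 The readout is target abundance, the per-binder median log2 ratio of FLAG to Myc barcode read proportions. It came from HEK293 landing-pad cells carrying a recombined ALFA-nanobody-fused binder library, induced with 2 μg mL^−1 doxycycline and transfected with a plasmid for a FLAG-tagged target and a Myc-tagged standard. After 48 h, lysates were immunoprecipitated with anti-FLAG and anti-Myc, and circular RNA barcodes were reverse transcribed, amplified and sequenced. Each barcode needed a proportion of at least 10^−7 in both replicates and each binder at least 3 barcodes per replicate, a pseudocount of 10^−6 was added, and the replicates were pooled.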

Binder	median log2 fold change
B1	0.183
B2	0.104
B3	0.268
B4	0.223
B5	0.104
B6	0.032
B7	0.0601
B8	-0.393
